# Test results reported in PubChem BioAssay AID504845 (National Center for Advancing Translational Sciences (NCATS), 2011).
# “And” between values parts separate entries of the source, which are not always exact repeats. Equal values may be shown once. The campaign covered roughly 390,000 compounds. About 150 (0.038%) were called active. About 3% were inconclusive and are not listed. Calls follow the shape of the dose curve; as a rule, active = well fitted inhibition curve with a large enough effect; inconclusive = small, poorly fitted or top-dose-only effect; inactive = no such curve, though single readings can be large or run the other way. The entries are a selection whose mix differs from that of the whole data set. Where a structure was tested more than once in an assay, its records may differ in their call.
# Biological target: Regulator of G-protein signaling 4 (Homo sapiens) (UniProt P49798)
# Assay: Inhibitors of Regulator of G Protein Signaling (RGS) 4: qHTS; also: nearly all actives have a fitted effect of over 75% in size
# Conditions: Transcreener GDP fluorescence polarization, RGS4-accelerated GTP hydrolysis; series mostly up to 114 µM; activity change, negative = inhibition: at the top concentration
# Outline: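 MLSMR compounds (23 nl, pin-transferred) preincubated 10 min at room temperature with a 500nM (2x) first reagent, then RGS4 at 900nM (2x) plus Transcreener GDP mix added; fluorescence polarization (620/688 nm) read before and after 90 min at 30 °C.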
# % is scaled to controls: 0 for no effect and ±100 for the full control effect; potency is read from the fitted curve at half-maximal effect.
# UniProt P49798, sequence (P49798 whole entry, looked up): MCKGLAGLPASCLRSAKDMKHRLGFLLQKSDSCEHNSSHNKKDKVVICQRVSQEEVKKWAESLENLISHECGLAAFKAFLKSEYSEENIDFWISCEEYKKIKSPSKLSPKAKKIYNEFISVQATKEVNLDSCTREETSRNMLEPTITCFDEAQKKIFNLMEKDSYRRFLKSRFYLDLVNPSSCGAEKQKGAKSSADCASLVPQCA
SMILES,"activity change, negative = inhibition",Potency
N=C1/C(=C\c2ccc(-c3cccc(C(=O)O)c3)o2)C(=O)N=C2SC=C(c3ccccc3)N12,inactive: 15.2% [at 11.4 µM],–
CCOc1cccc2c1OC1(C)CC2NC(=O)N1Cc1ccccc1 (stereo not drawn),inactive: 61.4%,–
C[C@@H]1c2ccccc2CN1CC1=NCCN1,inactive: 159% [at 56.9 µM],–
COc1cccc(CNC(=O)CCC2CCCN(C(=O)c3ccoc3)C2)c1 (stereo not drawn),inactive: 56.5%,–
CC1(C)CN(c2cccc(-c3ccnc4ncnn34)c2)C1=O,inactive: 54.1%,–
CNC(=O)Nc1ccccc1C(=O)NCc1ccccc1,inactive: 63.1%,–
OCC[C@H]1C[C@@H](O)[C@H](O)[C@@]2(CCc3ccccc3CO2)O1,inactive: -1.94%,–
O=C(CSc1n[nH]c(=O)[nH]c1=O)N/N=C/C=C/c1ccccc1,inactive: 2.78%,–
Cc1ccccc1N1C(=O)c2cc(S(N)(=O)=O)c(Cl)cc2NC1C (stereo not drawn),inactive: -5.83%,–
O=C1C2C=CC=CC2=NC(=S)N1CCN1CCC(=C(c2ccc(F)cc2)c2ccc(F)cc2)CC1 (stereo not drawn),inactive: 16.2% [at 56.9 µM],–
CNCCC(Oc1ccccc1OC)c1ccccc1 (stereo not drawn),–,inactive
CC1CNCCN1S(=O)(=O)c1cccc2cnccc12 (stereo not drawn),–,inactive
CC1CN(S(=O)(=O)c2cccc3cnccc23)CCN1 (stereo not drawn),inactive: 9.54% [at 56.9 µM],–
O=C(NCc1ccc(Cl)cc1)C1CCN(S(=O)(=O)c2ccccc2)CC1,inactive: 25.3%,–
Nc1ncnc2c1ncn2C1O[C@H](CO)[C@@H](O)[C@@H]1O (stereo partly drawn),inactive: 22.1%,–
CN(C)c1ccc(N=C/C=C2\N(C)c3ccccc3C2(C)C)cc1,inactive: -16% [at 11.4 µM],–
O=C(O)COc1ccc(OCCNC[C@@H](O)COc2ccccc2)cc1,inactive: 63.4% [at 56.9 µM],–
S=C(S)O[C@@H]1C[C@@H]2C[C@H]1[C@@H]1CCC[C@H]21,inactive: -161% [at 56.9 µM],–
NC(=O)C(c1ncc(C(F)(F)F)cc1Cl)c1c(Cl)cccc1Cl (stereo not drawn),inactive: 55.7%,–
Cc1ccc(CS(=O)(=O)c2ncc(Cl)c(C(=O)Nc3nnc(C(C)C)s3)n2)cc1,inactive: -43%,–
N#C/C(=C\C1=C(N2CCOCC2)C(=C\c2ccc(Cl)cc2)/CC1)C(=O)Nc1ccccc1F,inactive: -21.5%,–
CCOc1ccc(OCCSc2nnnn2C2CCCCC2)cc1,inactive: 55.9%,–
OCc1cc(C(O)CNCCCCCCOCCCCc2ccccc2)ccc1O (stereo not drawn),inactive: 18%,–
CC1CCC(C(C)C)C(OC(=O)Cn2c(-c3ccc(Br)cc3)[n+](C)c3ccccc32)C1 (stereo not drawn),inactive: -16.4%,–
COC(=O)C1=C[C@@H](C(=O)OC)C2C3=C(C(=O)[C@]2(CC(C)C)NC(=O)c2ccccc2)[C@H](C)n2c(=O)n(-c4ccccc4)c(=O)n2[C@@H]3C1 (stereo partly drawn),inactive: 5.21%,–
O=C(NCCCO)c1ccc2nc(-c3ccco3)c(-c3ccco3)nc2c1,inactive: -50.6%,–

SMILES,"activity change, negative = inhibition",Potency
Cc1ccc2c(c1)N(CCCC(=O)Nc1cccc(C(F)(F)F)c1)C(=O)CO2,inactive: 9.98%,–
COc1ccccc1N1CCN(C2CCCN(C(=O)c3ccoc3)C2)CC1 (stereo not drawn),inactive: 71.9%,–
O=c1c2ccccc2ncn1-c1ccc(Cl)cc1,inactive: -13.3%,–
C[C@@H](NC(=O)/C(C#N)=C/c1ccc(O)c(O)c1)c1ccccc1,inactive: 11%,–
COc1cccc(CNc2ccc3nc(-c4ccc(N)cc4)c(OC)n3n2)c1,inactive: -22% [at 56.9 µM],–
CC[n+]1c(/C=C2/C=C(C)CC(C)C2)sc2ccccc21 (stereo not drawn),inactive: -38.1% [at 11.4 µM],–
O=[N+]([O-])c1ccc2c(c1)S(=O)(=O)C=C2,–,active: 21.2 µM
CC(=O)SCC[N+](C)(C)C,–,inactive
O=C1NCN(c2ccccc2)C12CCN(CCCC(c1ccc(F)cc1)c1ccc(F)cc1)CC2,–,inactive
CCOc1cccc(C(c2c(C)n(C)n(-c3ccccc3)c2=O)c2c(C)n(C)n(-c3ccccc3)c2=O)c1OC,inactive: -12.2%,–
O=C(Nc1ccc(C(=O)Nc2ccc(C(=O)Nc3ccc(S(=O)(=O)O)c4cc(S(=O)(=O)O)cc(S(=O)(=O)O)c34)cc2)cc1)Nc1ccc(C(=O)Nc2ccc(C(=O)Nc3ccc(S(=O)(=O)O)c4cc(S(=O)(=O)O)cc(S(=O)(=O)O)c34)cc2)cc1,inactive: 31.7% [at 56.9 µM],–
CC(C)COCC(CN(Cc1ccccc1)c1ccccc1)N1CCCC1 (stereo not drawn),–,inactive
CC1(C)C2CCC13CS(=O)(=O)NC3C2 (stereo not drawn),inactive: -5.56%,–
Cc1[nH]c(=O)c(C#N)cc1-c1ccncc1,–,inactive
CCc1nnc(NC(=O)C2CCC2)s1,inactive: 54.1%,–
O=c1c2ccccc2sn1-c1ccc(S(=O)(=O)N2CCCCC2)cc1,inactive: -137%,–
N#Cc1ccc(N=c2ssnc2Cl)cc1,inactive: -119%,–
Cc1c(C)[n+](=O)c2c(n1[O-])CCCCC2,inactive: 57.1%,–
NS(=O)(=O)c1cccc2c1c([N+](=O)[O-])cc1nc(O)c(O)nc12,inactive: -14.6%,–
CC(C)c1c(C(=O)N/N=C/c2cccc(OCc3ccc(F)cc3)c2)nnn1-c1nonc1N,inactive: 58.2%,–
CN1CCc2ccccc2Cc2[nH]c3ccccc3c2CC1,inactive: 9.13%,–
CCn1cc(CCC(=O)NCc2ccc(F)cc2)c2ccccc21,inactive: -18.1%,–
COc1ccc2[nH]c(S(=O)Cc3ncc(C)c(OC)c3C)nc2c1 (stereo not drawn),–,inactive
CN1CCC(=C2c3ccccc3CC(=O)c3sccc32)CC1,–,inactive
COc1ccccc1N1CCN(CC(O)COc2cccc3ccccc23)CC1 (stereo not drawn),–,inactive
CC(C)(C)n1nc(-c2ccc(Cl)cc2)c2c(N)ncnc21,inactive: 22.4%,–

SMILES,"activity change, negative = inhibition",Potency
NC(=O)C1CCN(c2oc(/C=C/c3ccccc3)nc2S(=O)(=O)c2ccccc2)CC1,inactive: 60.5%,–
CSc1ccc(C(=O)c2[nH]c(=O)[nH]c2C)cc1,inactive: -31.7%,–
CC(N)(Cc1ccc(O)c(O)c1)C(=O)O (stereo not drawn),–,active: 10.6 µM
COc1cc2ncc(-c3ccccc3)nc2cc1OC,inactive: 440% [at 56.9 µM],–
Cc1cc(=O)oc2cc(OCC(=O)NCCN3CCOCC3)c(Cl)cc12,inactive: 59.5%,–
NC12CC3CC(CC(C3)C1)C2,inactive: -26.2%,–
O=C(O)c1cc(O)c2c(c1)[C@@H]([C@H]1c3cc(C(=O)O)cc(O)c3C(=O)c3c(O[C@@H]4O[C@H](CO)[C@@H](O)[C@H](O)[C@H]4O)cccc31)c1cccc(O[C@@H]3O[C@H](CO)[C@@H](O)[C@H](O)[C@H]3O)c1C2=O,inactive: -120%,–
Cc1ccc(NC(=O)CCC(=O)Nc2nnc(C3CCCCC3)s2)cc1,inactive: 55.4%,–
CCCCCCCCCCCCCCCC(=O)OC(CC(=O)O)C[N+](C)(C)C (stereo not drawn),–,inactive and active: 18.9 µM
COc1cccc(NC(=O)c2ccc3c(c2)C(=O)N(CC2CCCO2)C3=O)c1 (stereo not drawn),inactive: 63.7%,–
C=CC[C@H](N)C(=O)O,inactive: -7.02% [at 56.9 µM],–
CCCCCCCCCCC1=C(C)C(=O)C(OC)=C(OC)C1=O,inactive: 150% [at 56.9 µM],–
CN(Cc1ccco1)S(=O)(=O)c1nnc(NC(=O)c2ccccc2)s1,inactive: 8.97%,–
CCOC(=O)C(C)(C)Oc1ccc(Cl)cc1,–,inactive
c1cnc2c(c1)ccc1cccnc12,inactive: -3.4%,–
CCc1cc2c3c(c(=O)oc2cc1OC(C)C(=O)O)CCCC3 (stereo not drawn),inactive: 84.1%,–
CC(C)NC[C@H](O)COc1ccc(CC(N)=O)cc1,–,inactive
CCC(NC(C)C)C(O)c1ccc(O)c(O)c1 (stereo not drawn),inactive: -4.7%,–
O=C(N/C(=C/c1ccccc1)C(=O)N1CCCCCC1)c1ccccc1,inactive: 2.23%,–
N[C@H](CO)C(=O)O,inactive: 8.08% [at 56.9 µM],–
O=C1Cc2cc(CCN3CCN(c4nsc5ccccc45)CC3)c(Cl)cc2N1,–,active: 16.8 µM
O=C(O)CCC/C=C\C[C@@H]1[C@@H](/C=C/[C@@H](O)COc2cccc(Cl)c2)[C@H](O)C[C@@H]1O,inactive: 240% [at 56.9 µM],–
Cc1ccc(-n2nnnc2SCC(=O)N(CC(C)C)c2c(N)n(CC(C)C)c(=O)[nH]c2=O)cc1,inactive: 76.7%,–
COc1ccc(NC(=O)Cn2nnc(C(=O)NCc3ccco3)c2N)c(OC)c1,inactive: -23.9%,–
CC(=O)[C@H]1CC[C@H]2[C@@H]3CC=C4C[C@@H](O)CC[C@]4(C)[C@H]3CC[C@]12C,inactive: 15.7%,–
CCOCCCNC(=O)C(NC(=O)C1CCC(=O)N1)c1ccc(C)cc1 (stereo not drawn),inactive: 63.6%,–

SMILES,"activity change, negative = inhibition",Potency
Oc1ccc(NCc2ccccc2OCc2ccccc2)cc1,inactive: -52%,–
CC(C)c1ccc2c(c1)c(SC(C)(C)C)c(CC(C)(C)C(=O)O)n2Cc1ccc(Cl)cc1,inactive: -20.3%,–
C[C@H]1C=C(C(=O)NCc2nc3ccccc3[nH]2)O[C@@H](OCCCCO)C1,inactive: -9.88%,–
COc1ccccc1NC(=O)Cn1c(=O)sc2ccccc21,inactive: 56.3%,–
O=c1[nH]c2ccccc2n2c(-c3ccccc3)nnc12,inactive: -122%,–
CCOC(=O)N1CCC(NS(=O)(=O)c2cc3c(cc2C)NC(=O)CO3)CC1,inactive: 65.6%,–
Nc1ncnc2c1ncn2C1CCCO1 (stereo not drawn),inactive: 5.23%,–
CCS(=O)(=O)N1CCC[C@H]2CN3CCc4cc(OC)ccc4[C@@H]3C[C@@H]21,inactive: -56.1% [at 56.9 µM],–
O=C(Nc1cc(S(=O)(=O)N2CCCCC2)ccc1O)c1ccccc1NS(=O)(=O)c1ccc(F)cc1,inactive: -14.3%,–
O[C@@H]1[C@@H](O)C=C2CCN3Cc4cc5c(cc4[C@H]1C23)OCO5 (stereo partly drawn),inactive: 16%,–
Cn1c2ccccc2c2cc(/C=N/NC(=O)c3ccccc3F)ccc21,inactive: 56.9%,–
CCOC(=O)C1CCCN(C(=O)c2cc3cc(Br)ccc3oc2=O)C1 (stereo not drawn),inactive: 65.8%,–
Cc1ccc(NC(=O)C2CCN(S(=O)(=O)c3ccc4c(c3)NC(=O)CO4)CC2)cc1,inactive: 65.6%,–
CC1=C(/C=C/C(C)=C/C=C/C(C)=C\C(=O)O)C(C)(C)CCC1,–,inactive
CSc1ccc2c(c1)N(CCC1CCCCN1C)c1ccccc1S2 (stereo not drawn),–,inactive
OCC[C@H]1C[C@H](O)[C@@H](O)[C@]2(CCc3ccccc3CO2)O1,inactive: 26%,–
NC(CS(=O)O)C(=O)O (stereo not drawn),inactive: -19.7%,–
COC(=O)/C=C1\SC(=NC(=O)c2ccc(OC)cc2)NC1=O,inactive: -40.1%,–
C/C=C/c1ccc(OCC(=O)NCc2ccccc2OC)c(OC)c1,inactive: 54.1%,–
Cc1cc(C)c2c(CC(=O)NN(C)C)coc2c1,inactive: 79.6%,–
CCCCNc1c(C(=O)OCC)c(C)nc2c1cnn2CC,–,inactive
CN(Cc1ccco1)S(=O)(=O)c1nnc(NC(=O)c2ccccc2Cl)s1,inactive: -18.1%,–
CC1=C(/C=C/C(C)=C\C=C\C(C)=C\C(=O)O)C(C)(C)CCC1,inactive: 90% [at 56.9 µM],–
CCCN(CCC)CCCNC(=O)c1cc2c(-c3ccc(OC)c(OC)c3)nn(C)c2s1,inactive: 22.3%,–
COc1cc(C2CC(=O)C=C(O)C2)cc(OC)c1OC (stereo not drawn),inactive: 54.8%,–
